Measurements as given in the supplement of paper PMC8116656.

Key:
Assay in all cases: Isolates counted by MIC
[1] = system: Bacillus licheniformis (32 isolates)
Description: (§1)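 CLSI M07 broth microdilution in cation-adjusted Mueller-Hinton broth, 0.25-256 µg/mL, 24 h at 35 °C in air (Clostridium: agar dilution, anaerobic).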

[2] = system: Paenibacillus sp. (10 isolates)
Description: as §1

[3] = system: Bacillus sp. (15 isolates)
Description: as §1

[4] = system: Paenibacillus lautus (10 isolates)
Description: as §1

[5] = system: Paenibacillus dendritiformis (14 isolates)
Description: as §1

[6] = system: Bacillus paralicheniformis (11 isolates)
Description: as §1

[7] = system: Paenibacillus cineris (21 isolates)
Description: as §1

[8] = system: Alkalihalobacillus clausii (21 isolates)
Description: as §1

CN(C)[C@@H]1C(O)=C(C(N)=O)C(=O)[C@@]2(O)C(O)=C3C(=O)c4c(O)cccc4[C@@](C)(O)[C@H]3[C@H](O)[C@@H]12 [oxytetracycline]
Conditions | isolate count
[1], MIC: 0.5 µg/ml | 15
[1], MIC: 1 µg/ml | 1
[1], MIC: ≤0.25 µg/ml | 16
[2], MIC: 0.5 µg/ml | 1
[2], MIC: 2 µg/ml | 1
[2], MIC: 4 µg/ml | 1
[2], MIC: 8 µg/ml | 2
[2], MIC: 16 µg/ml | 1
[2], MIC: 32 µg/ml | 1
[2], MIC: 64 µg/ml | 1
[2], MIC: 128 µg/ml | 1
[2], MIC: ≤0.25 µg/ml | 1
[3], MIC: 0.5 µg/ml | 2
[3], MIC: 1 µg/ml | 3
[3], MIC: 2 µg/ml | 3
[3], MIC: 8 µg/ml | 1
[3], MIC: 16 µg/ml | 2
[3], MIC: ≤0.25 µg/ml | 4
[4], MIC: 4 µg/ml | 3
[4], MIC: 8 µg/ml | 1
[4], MIC: 16 µg/ml | 3
[4], MIC: 32 µg/ml | 3
[5], MIC: 0.5 µg/ml | 7
[5], MIC: 1 µg/ml | 6
[5], MIC: 64 µg/ml | 1
[6], MIC: 8 µg/ml | 5
[6], MIC: 16 µg/ml | 6
[7], MIC: 1 µg/ml | 1
[7], MIC: 8 µg/ml | 1
[7], MIC: 32 µg/ml | 7
[7], MIC: 64 µg/ml | 10
[7], MIC: 128 µg/ml | 2
[8], MIC: 0.5 µg/ml | 1
[8], MIC: 1 µg/ml | 2
[8], MIC: 2 µg/ml | 1
[8], MIC: 4 µg/ml | 15
[8], MIC: 8 µg/ml | 2

CC[C@H]1OC(=O)C[C@@H](O)[C@H](C)[C@@H](O[C@@H]2O[C@H](C)[C@@H](O[C@H]3C[C@@](C)(O)[C@@H](O)[C@H](C)O3)[C@H](N(C)C)[C@H]2O)[C@@H](CC=O)C[C@@H](C)C(=O)/C=C/C(C)=C/[C@@H]1CO[C@@H]1O[C@H](C)[C@@H](O)[C@@H](OC)[C@H]1OC [tylosin]
Conditions | isolate count
[1], MIC: 1 µg/ml | 13
[1], MIC: 2 µg/ml | 16
[1], MIC: 4 µg/ml | 3
[2], MIC: 1 µg/ml | 1
[2], MIC: 2 µg/ml | 1
[2], MIC: 4 µg/ml | 3
[2], MIC: 8 µg/ml | 4
[2], MIC: 32 µg/ml | 1
[3], MIC: 1 µg/ml | 4
[3], MIC: 2 µg/ml | 8
[3], MIC: 4 µg/ml | 1
[3], MIC: 8 µg/ml | 2
[4], MIC: 4 µg/ml | 1
[4], MIC: 8 µg/ml | 6
[4], MIC: 16 µg/ml | 3
[5], MIC: 0.5 µg/ml | 1
[5], MIC: 4 µg/ml | 1
[5], MIC: ≤0.25 µg/ml | 12
[6], MIC: 1 µg/ml | 1
[6], MIC: 2 µg/ml | 9
[6], MIC: 4 µg/ml | 1
[7], MIC: 4 µg/ml | 2
[7], MIC: 8 µg/ml | 3
[7], MIC: 16 µg/ml | 10
[7], MIC: 32 µg/ml | 5
[7], MIC: 64 µg/ml | 1
[8], MIC: 8 µg/ml | 1
[8], MIC: 16 µg/ml | 1
[8], MIC: 32 µg/ml | 1
[8], MIC: 64 µg/ml | 9
[8], MIC: 128 µg/ml | 2
[8], MIC: 256 µg/ml | 1
[8], MIC: >256 µg/ml | 6

CCC[C@@H]1C[C@@H](C(=O)N[C@@H]([C@H]2O[C@H](SC)[C@H](O)[C@@H](O)[C@H]2O)[C@@H](C)O)N(C)C1 [lincomycin]
Conditions | isolate count
[1], MIC: 128 µg/ml | 2
[1], MIC: 256 µg/ml | 9
[1], MIC: >256 µg/ml | 21
[2], MIC: 32 µg/ml | 1
[2], MIC: 64 µg/ml | 1
[2], MIC: 128 µg/ml | 1
[2], MIC: 256 µg/ml | 1
[2], MIC: >256 µg/ml | 6
[3], MIC: 4 µg/ml | 1
[3], MIC: 8 µg/ml | 3
[3], MIC: 16 µg/ml | 7
[3], MIC: 128 µg/ml | 1
[3], MIC: 256 µg/ml | 1
[3], MIC: >256 µg/ml | 2
[4], MIC: 128 µg/ml | 6
[4], MIC: 256 µg/ml | 4
[5], MIC: 1 µg/ml | 1
[5], MIC: 2 µg/ml | 2
[5], MIC: 4 µg/ml | 1
[5], MIC: 8 µg/ml | 7
[5], MIC: 16 µg/ml | 1
[5], MIC: 32 µg/ml | 1
[5], MIC: 64 µg/ml | 1
[6], MIC: 8 µg/ml | 1
[6], MIC: 256 µg/ml | 1
[6], MIC: >256 µg/ml | 9
[7], MIC: 256 µg/ml | 10
[7], MIC: >256 µg/ml | 11
[8], MIC: 128 µg/ml | 1
[8], MIC: 256 µg/ml | 7
[8], MIC: >256 µg/ml | 13

Each value is the number of isolates with that result; steps that no isolate showed are left empty. MIC of bacteria isolated from honey, broth microdilution (CLSI M07), 0.25-256 µg/mL, 24 h at 35 °C; higher = less susceptible. No active / inactive call. Isolates were picked on agar with 1 µg/mL tylosin.
